System: Vcap cells (androgen receptor (+) prostate cancer cells)
Experiment: CTG cell proliferation assay (CellTiter-Glo), compounds alone or in combination
[1] = 1 μM tested compound in combination with 1 μM B001 and 1 μM prednisone and 1 μM Abiraterone acetate
[2] = 1 μM tested compound in combination with 1 μM B001 and 1 μM prednisone and 1 μM Galeterone
[3] = 1 μM tested compound in combination with 1 μM B001 and 1 μM prednisone and 1 μM ODM-201
[4] = 10 μM tested compound in combination with 1 μM B001 and 1 μM prednisone and 1 μM Abiraterone acetate
[5] = 10 μM tested compound in combination with 1 μM B001 and 1 μM prednisone and 1 μM ODM-201

SMILES | Survival rate of Vcap cells [1] [%] | Survival rate of Vcap cells [2] [%] | Survival rate of Vcap cells [3] [%] | Survival rate of Vcap cells [4] [%] | Survival rate of Vcap cells [5] [%] | Survival rate of Vcap cells (10 μM tested compound in combination with 1 μM B001 and 1 μM prednisone and 1 μM Galeterone) [%]
CC1(C)C(=O)N(c2ccc(C#N)c(C(F)(F)F)c2)C(=S)N1c1ccc(OC[C@@H](O)CO)cc1 [AR3-3] | 57.0 | 59.0 | 48.4 | 42.3 | 45.6 | 
CC1(C)C(=O)N(c2ccc(C#N)c(C(F)(F)F)c2F)C(=S)N1c1ccc(CCCc2ncco2)nc1 [AR2-5] | 72.2 | 71.5 | 65.6 | 57.3 | 59.6 | 58.4
